Data from PubChem BioAssay AID463173 (ICCB-Longwood Screening Facility, Harvard Medical School, 2010).
The whole screen tested about 52,000 compounds, of which about 4,300 (8.3%) were called active. Cut-off read from the data, not from the text of the source: active = survival mostly below about 52% (no sharp cut-off); inactive = mostly above about 56%. This is one part of the list.

Test system: DeltatarO mutant
Assay: growth inhibition of S. aureus wild type versus tarO mutant, primary screen, teichoic acid synthesis inhibitors, RN4220, OD600 (AID 463173)
Conditions: OD600, 18 h, stronger effect = lower value, screened at 18.75 µg/mL (by protocol)

SMILES	survival
CCOC(=O)c1cnc2c(ccc3ccccc32)c1Nc1ccccc1OC	active: 28%
Cc1ccc(S(=O)(=O)CCC(=O)Nc2ccc(Br)cc2C)cc1	inactive: 85%
CC1(C)CC(NC(=O)CCc2ccccc2)CC(C)(C)N1	inactive: 102%
O=C(NC1CC(=O)N(c2ccc3c(c2)OCCO3)C1)c1c(F)cccc1Cl (configuration not stated)	inactive: 98%
Nc1cccc(C(=O)NC23CC4CC(CC(C4)C2)C3)c1	inactive: 95%
COc1ccc(-c2noc(CSc3nnc(Cc4ccccc4)n3-c3ccccc3)n2)cc1OC	inactive: 98%
CCOC(=O)c1cc(-c2ccccc2)n(CC(=O)NC2CCC(C)CC2)c1C (configuration not stated)	inactive: 92%
CCOC(=O)c1cnc2ccccc2c1NCC(C)O (configuration not stated)	inactive: 89%
CCCCOc1ccc(CNC(=O)c2ccc(-c3nc(CN4CCc5ccccc54)c(C)o3)cc2)cc1	inactive: 101%
COc1ccc2[nH]c(=O)c(CN(Cc3ccco3)C(c3nnnn3Cc3ccccc3)C(C)C)cc2c1 (configuration not stated)	inactive: 64%
COc1cccc(NC(=O)c2sc3nc4n(c(=O)c3c2C)CCC4)c1	inactive: 92%
CCc1ccc2oc(-c3cccc(NC(=O)c4cc5ccccc5o4)c3)nc2c1	active: 14%
Cc1ccccc1C(=O)Nc1nc2nc(C)c(C)c(=O)n2[nH]1	inactive: 92%
CCCc1nn2c(=O)cc(COC(=O)c3ccc(NC(=O)CCc4ccccc4)cc3)nc2s1	inactive: 69%
Cc1nc2c(C(=O)O)cnn2c(C)c1Cc1ccccc1	inactive: 81%
Cc1ccc(C(=O)CSc2ncc3c(n2)-c2ccccc2N(Cc2ccc(Cl)cc2)S3(=O)=O)cc1	inactive: 115%
Cc1ccc2nc(N3CCN(c4cccc(Cl)c4)CC3)c3nnnn3c2c1	inactive: 88%
Cn1c(SCC(=O)N2CCCc3ccccc32)ncc(C(=O)Nc2ccc(Cl)cc2)c1=O	inactive: 94%
COc1cccc(CN(Cc2ccco2)c2cnc(S(C)(=O)=O)nc2C(=O)Nc2cccc(Cl)c2C)c1	active: 47%

SMILES	survival
CCOc1ccccc1-c1nc(=S)[nH][nH]1	inactive: 79%
Cc1cc2cc(CN(Cc3ccco3)C(c3nnnn3C3CCCC3)C(C)C)c(=O)[nH]c2cc1C (configuration not stated)	inactive: 107%
CCc1nc2nc(C)cc(Nc3ccc(OC)cc3)n2n1	inactive: 68%
CCn1nnnc1SCC(=O)NC1CCCC1	inactive: 65%
COc1ccc(S(=O)(=O)N2CCCC(C(=O)N(Cc3cccs3)C3CC3)C2)cc1Cl (configuration not stated)	inactive: 79%
O=S(=O)(NCCSc1nnnn1-c1ccccc1)c1ccc(F)cc1	inactive: 76%
Cc1ccc(-c2onc(C)c2C)cc1S(=O)(=O)NCc1ccco1	inactive: 87%
COc1cccc(OCCCCn2c(-c3ccc(Cl)cc3)nc3ccccc3c2=O)c1	inactive: 62%
O=C(c1cccc([N+](=O)[O-])c1)N1c2ncnn2C2(CCCCC2)[C@@H]2CCCC[C@@H]21	inactive: 85%
CC(=O)Nc1ccc(S(=O)(=O)NC2(C(F)(F)F)NC(=O)N(c3ccc(C)cc3)C2=O)cc1 (configuration not stated)	inactive: 83%
CCOc1cc(C(=O)Nc2cccc(-c3nc4ccccc4o3)c2)cc(OCC)c1OCC	inactive: 51%
Cc1ccc(S(=O)(=O)c2cnc(SCC(=O)Nc3ccc4c(c3)OCCO4)[nH]c2=O)cc1	inactive: 92%
CN(C1CCCCC1)S(=O)(=O)c1ccc2c(c1)c(=O)c(C(=O)NCCc1ccc(Cl)cc1)cn2C	inactive: 69%
Cc1ccc(-c2nnc(Nc3cccc(Cl)c3)c3ccccc23)cc1S(=O)(=O)NCC1CCCO1 (configuration not stated)	inactive: 110%
CCS(=O)(=O)N1CCC(C(=O)NCCC(C)C)CC1	inactive: 87%
CSCCC(NS(=O)(=O)c1ccc2c(c1)oc(=O)n2C)C(=O)NCCc1ccc(C)cc1 (configuration not stated)	inactive: 78%
Cc1cccc(CN2C(=O)c3ccccc3Sc3ccc(C(=O)N4CCCC4)cc32)c1	inactive: 83%
O=C(Nc1cc(Cl)cc(Cl)c1)c1ccc(F)c(S(=O)(=O)NC2CCCC2)c1	inactive: 95%
O=C(CN1CCCCCCC1)Nc1ccc2c(c1)OCO2	inactive: 87%

SMILES	survival
COC(=O)c1c(-c2cccs2)csc1NC(=O)c1ccc(Cl)cc1	inactive: 69%
COCCN1C(=O)c2[nH]nc(-c3ccccc3O)c2C1c1ccc(OCc2ccccc2)c(OC)c1 (configuration not stated)	active: 13%
COc1ccc2c(c1)c1c(c(=O)n(-c3ccccc3C)c(=O)n1CC(=O)NCc1ccc(C)cc1)n2C	inactive: 75%
Cc1cccc(OCc2ccc(-c3nc(C#N)c(NCCN(C)C)o3)o2)c1	inactive: 104%
Cc1ccc(S(=O)(=O)c2cnc(SCC(=O)Nc3cc(C)cc(C)c3)nc2N)cc1	inactive: 102%
O=C(NCCNCc1ccccc1)c1ccco1	inactive: 104%
CCCCc1ccc(-n2nc3cc(C)c(NC(=O)Cc4ccccc4)cc3n2)cc1	inactive: 140%
COC(=O)c1ccccc1NC(=O)Cn1cc(S(=O)(=O)Cc2ccccc2F)c2ccccc21	inactive: 94%
CCOC(=O)c1c(C)oc2nc(C)nc(NCc3ccccc3Cl)c12	inactive: 92%
CCN(CC)c1ccc(NC(=O)CSc2nnc(C)c(=O)[nH]2)cc1	inactive: 85%
CCCN(CCC)C(=O)CSc1nnc2cc(C)c3cc(C)cc(C)c3n12	inactive: 80%
COc1ccccc1Nc1nn2c(=O)c3ccc(C(=O)NCc4cccs4)cc3nc2s1	inactive: 75%
COc1ccc(-c2cn3c(n2)sc2cc(C(=O)NCc4ccccc4OC)ccc23)cc1	inactive: 63%
COC(=O)c1cc(S(=O)(=O)NCC2CCN(Cc3cc(C)ccc3C)CC2)c[nH]1	inactive: 81%
COc1ccc(N2CCN(C(=O)c3ccc(C)c(NC(=O)c4nsc5ccccc45)c3)CC2)cc1	inactive: 72%
CCOC(=O)c1c(NC(=O)/C=C/c2ccccc2)sc2c1CCCC2	inactive: 75%
COc1cccc(Cn2c(CNC(=O)C(C)C)nc3cccnc32)c1	inactive: 96%
COCCNC(=O)C(=O)NCC(c1ccc2c(c1)OCO2)N1CCOCC1 (configuration not stated)	active: 0%
Cc1ccc(C(=O)Nc2ccc(-c3nc4ccccc4s3)c(O)c2)c(C)c1	inactive: 84%
